# Test results published in PubChem BioAssay AID1671193 (National Center for Advancing Translational Sciences (NCATS), 2021).
# Where “and” joins values, the source holds several entries; their conditions need not be identical. Identical values can stand only once. Among all 150,000 compounds or so, about 180 (0.12%) were called active. Inconclusive results, whose numbers are uncertain, are shown with a selection of clear calls. The call rests on the fitted dose curve; in most records, active means well fitted cell-killing curve with a large enough effect; inconclusive means small, poorly fitted or top-dose-only effect, or effect the other way; inactive means flat fitted curve, though single readings scatter. A potency beside an inconclusive call is a rough fit, not a confirmed value.
# Test: GF-AFC viability counterscreen for inhibitors of alpha-synuclein gene (SNCA) expression; further: nearly all actives have a fitted effect of over 30% in size;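 on activity change, negative = cytotoxicity: 0% = DMSO-treated cells and -100% = medium-only wells without cells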
# Details: HEK-293-SNCA-luc viability, GF-AFC fluorescence, 24 h; activity change, negative = cytotoxicity: at 57.1 µM (top of the series) unless noted
# Method in brief: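 HEK-293-SNCA-luc cells (1500/well) plated 24 h, then exposed 24 h to a dilution series; GF-AFC added 30 min at 37C, fluorescence 405/540 nm; normalised to medium-only and DMSO wells, Hill fit.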
# Potency means the concentration at half of the fitted maximal effect; tags describe the fitted curve by direction and shape.
SMILES,"activity change, negative = cytotoxicity",Potency
CCc1cc(N2CCC(NCCc3cccc(Cl)c3)CC2)nc(C)n1,inactive: -12.7%,–
COc1ccc(C(=O)Nc2nc3n(n2)C(c2ccc(Cl)cc2)C=C(c2ccccc2)N3)cc1OC (stereo not drawn),–,"inconclusive: 25.1 µM [rising, partial curve]"
COc1ccc(C(=O)N2CCC(n3c(C)cnc3-c3ccccc3)CC2)c(OC)c1,–,"inconclusive: 0.631 µM [cytotoxic, partial curve, poor fit]"
O=c1c(-c2cccc(F)c2)nc2cncnc2n1Cc1ccccc1Cl,–,"inconclusive: 6.31 µM [cytotoxic, partial curve, poor fit]"
CCc1cccc(C)c1NC(=O)CN1C(=O)NC(c2ccc(Cl)cc2)C2=C1COC2=O (stereo not drawn),inactive: 9.24%,–
CC1(c2ccccc2)N(Cc2ccccc2)C(=O)OC12CCN(c1ccncc1)CC2 (stereo not drawn),–,"inconclusive: 35.5 µM [cytotoxic, partial curve, poor fit]"
Cc1ccccc1Cn1cc(-c2ccncc2)cc1C(=O)Nc1ccc2c(c1)OCO2,–,"inconclusive: 10 µM [cytotoxic, full curve, poor fit]"
CCn1c(CN2CCCCC2)nc2cc(NC(=O)c3cccc([N+](=O)[O-])c3)ccc21,–,"inconclusive: 28.2 µM [cytotoxic, partial curve, poor fit]"
COc1cc(Cl)ccc1C(=O)N1CC[C@@](C)(O)[C@@H](O)C1,–,"inconclusive: 1.78 µM [rising, full curve, poor fit]"
Cc1cccn2c(=O)cc(COc3cccc(NC(=O)c4cccc(Cl)c4)c3)nc12,–,"inconclusive: 0.355 µM [rising, full curve, poor fit]"
COC[C@@H]1[C@H](C(=O)N2CCN(Cc3ccccc3)CC2)CCC(=O)N1C,inactive: -3.84%,–
CSc1nnc2n(-c3cccc(C)c3)c(=O)c3c4c(sc3n12)CCCC4,–,"inconclusive: 1.58 µM [cytotoxic, full curve, poor fit]"
Cn1nc(C(=O)NCCc2ccc(Cl)cc2)c2c1-c1ccccc1SC2,inactive: -3.31%,–
c1c(-c2nc(C3CCOC3)no2)sc2c1CCCC2 (stereo not drawn),inactive: 2.74%,–
C[S+](=O)([O-])c1ccc(-c2ccc3ncn(-c4ccc(F)cc4F)c(=O)c3n2)cc1,–,"inconclusive: 56.2 µM [cytotoxic, single point]"
CCN(Cc1ccccc1)C(=O)Cn1c(=O)n(-c2cccc(C)c2)c(=O)c2c1c1cc(OC)ccc1n2C,–,"inconclusive: 1.26 µM [cytotoxic, full curve, poor fit]"
CC1CCN(C(=O)Cn2c(SCC(=O)Nc3ccc(F)cc3)nc3ccccc32)CC1,–,"inconclusive: 2 µM [cytotoxic, full curve]"
COc1cc(N2CCC(C(N)=O)CC2)ccc1Nc1nc(N)c(Cl)c(Nc2ccccc2S(=O)(=O)C(C)C)n1,–,"inconclusive: 3.41 µM [cytotoxic, full curve, poor fit]"
CC(C)c1noc([C@@H]2C[C@H]3C(=O)NCCCCCCN(C(=O)CC4CCCCC4)[C@H]3C2)n1,–,"inconclusive: 39.8 µM [cytotoxic, single point]"
CC(C)C[C@@H]1N[C@H](C(=O)NC2CCCC2)Cc2cn(Cc3nccn3C)c3cccc1c23,–,"inconclusive: 39.8 µM [cytotoxic, single point]"

SMILES,"activity change, negative = cytotoxicity",Potency
CCN1c2cc(C(=O)Nc3ccc(OC)c(OC)c3)ccc2C(=O)N2CCCCC21 (stereo not drawn),inactive: 1.94% [at 12.5 µM],–
CCC(=O)N1CCc2cc(Br)cc(S(=O)(=O)Nc3ccccc3C(=O)OC)c21,–,"inconclusive: 39.8 µM [cytotoxic, single point]"
CNC(=O)c1cn2c(n1)CN(S(=O)(=O)c1cccc(OC)c1)CC2,–,"inconclusive: 11.2 µM [cytotoxic, single point]"
CCOC(=O)c1cc2c(=O)n3ccccc3nc2n(C)c1=NC(=O)c1c(-c2c(F)cccc2Cl)noc1C,–,"inconclusive: 39.8 µM [rising, single point]"
COc1ccc(-c2[nH]nc3ncc(C(=O)Nc4ccn(C)n4)nc23)c(C)c1,–,"inconclusive: 14.1 µM [cytotoxic, partial curve, poor fit]"
c1ccc(-c2cccc(N3CCC4(CCNCC4)CC3)c2)cc1,–,"inconclusive: 10 µM [cytotoxic, partial curve]"
Cc1ccc(C)c(N2CCN(S(=O)(=O)c3c(C(=O)N4CCC(C)CC4)c(C)n(C)c3C)CC2)c1,–,"inconclusive: 10 µM [cytotoxic, partial curve, poor fit]"
O=C(CCCc1ccccc1)NC1CC(=O)N(c2cccc(F)c2)C1 (stereo not drawn),–,"inconclusive: 7.08 µM [cytotoxic, single point]"
Cc1cccc(NC(=O)Cn2c(=O)n(CCCCCC(=O)NCc3ccccc3)c(=O)c3sccc32)c1,–,"inconclusive: 15.8 µM [cytotoxic, partial curve, poor fit]"
COc1ccc(-c2nccn3cc(C(=O)NCCc4cccnc4)nc23)cc1,inactive: -19.1%,–
O=C(COc1ccccc1)Nc1nnc(S(=O)(=O)Nc2ccccc2)s1,inactive: -6.67%,–
COc1ccc2cc1Nc1ccc(cc1)C[C@H](NCc1ccc3c(c1)CCO3)C(=O)N(C)[C@H](C(=O)NCCC(C)C)C2,–,"inconclusive: 28.2 µM [cytotoxic, partial curve]"
NC(=O)c1c(OCc2c(F)cc(Br)cc2F)nsc1NC(=O)NCCCCN1CCCC1,–,"inconclusive: 4.29 µM [cytotoxic, full curve]"
COc1ccc(NC(=O)N2Cc3[nH]cnc3C[C@H]2c2nc(-c3ccccc3)no2)cc1,–,"inconclusive: 35.5 µM [cytotoxic, partial curve, poor fit]"
CN(Cc1cc(C[C@H]2CNCC[C@H]2CC(=O)N2CCN(c3ccccc3)CC2)no1)c1ccccc1,–,"inconclusive: 39.8 µM [cytotoxic, partial curve, poor fit]"
COc1ccc(NC(=O)CSc2oc(-c3cccs3)nc2S(=O)(=O)c2ccccc2)c(OC)c1,–,"inconclusive: 17.8 µM [cytotoxic, single point]"
Clc1ccc2c(c1)-n1cc(-c3ccccc3)nc1CO2,–,"inconclusive: 7.08 µM [cytotoxic, single point]"
COc1ccc(C(=O)c2cn(Cc3ccccc3F)c3cc4c(cc3c2=O)OCCO4)cc1OC,–,"inconclusive: 1.12 µM [cytotoxic, full curve, poor fit]"
COc1cccc(CN2C[C@@H](CO)[C@H](NC(=O)C3CC3)C2)n1,–,"inconclusive: 2.51 µM [rising, full curve, poor fit]"
O=C(Nc1ccc2c(c1)CCCN2C(=O)c1cccs1)c1ccc(F)c(F)c1,–,"inconclusive: 22.4 µM [cytotoxic, partial curve, poor fit]"

SMILES,"activity change, negative = cytotoxicity",Potency
COc1ccccc1/C=C/c1nc(C#N)c(NC2CCCCC2)o1,–,"inconclusive: 39.8 µM [rising, single point]"
CCCCn1c(CN(C)Cc2[nH]c3ccccc3c2C)cnc1S(=O)(=O)CC,–,"inconclusive: 3.98 µM [cytotoxic, single point]"
CC(C)CC(=O)N1C[C@H](C(N)=O)[C@H]2c3ccccc3N(C)C(=O)[C@]21C,inactive: -20.9% [at 23.9 µM],–
Cc1cccc(NC(=O)CSC2=Nc3ccccc3C3=NC(CC(=O)NCc4cccs4)C(=O)N23)c1 (stereo not drawn),–,"inconclusive: 28.2 µM [cytotoxic, partial curve, poor fit]"
C=C(C)C(=O)OC1CC2(C)OC(=CC2=O)C(=C)CC2OC(=O)C(COC)C12 (stereo not drawn),–,"inconclusive: 20.7 µM [cytotoxic, single point]"
CCn1c(CNC(=O)c2ccc(OC)cc2)nnc1SCC(=O)Nc1cc(C)ccc1C,–,"inconclusive: 22.4 µM [cytotoxic, partial curve, poor fit]"
CN(C)N(C)C(=O)[C@@]1(Cc2ccccc2)CCCN(C(=O)[C@@H](Cc2c[nH]c3ccccc23)NC(=O)C(C)(C)N)C1,–,"inconclusive: 15 µM [cytotoxic, partial curve]"
COc1ccc(F)c(F)c1C(=O)c1cnc(NC2CCN(S(C)(=O)=O)CC2)nc1N,–,"inconclusive: 6.07 µM [cytotoxic, full curve] and inconclusive: 3.77 µM [cytotoxic, full curve]"
COc1ccc(C(=O)NCCC2CCN(C(=O)Nc3cccc(F)c3)CC2)cc1,inactive: -0.768%,–
CC(C)c1nnc(C2CN(C(=O)Cc3ccc(Br)cc3)CC23CCOCC3)o1 (stereo not drawn),–,"inconclusive: 3.98 µM [cytotoxic, single point]"
COc1ccc(Nc2c3c(nc4ccccc24)CCC3)cc1Cl,–,"inconclusive: 28.2 µM [cytotoxic, partial curve, poor fit]"
Cc1ccc(C(=O)N2CCC(Cc3nc(-c4ccccc4)no3)CC2)c(C)c1,inactive: -14%,–
O=C([C@H]1CCCN1C(=O)Nc1ccccc1)N1CCCC(c2nc3ccncc3[nH]2)C1 (stereo partly drawn),inactive: -1.86%,–
O=C(NCc1ccco1)c1ccc(Cn2c(SCc3ccccc3)nc3cccnc32)cc1,–,"inconclusive: 22.4 µM [cytotoxic, partial curve, poor fit]"
COc1ccc(NC(=O)CSC2=Nc3ccccc3C3=NC(CC(=O)NCCc4ccccc4)C(=O)N23)cc1 (stereo not drawn),–,"inconclusive: 11.2 µM [cytotoxic, partial curve, poor fit]"
CCn1cc(C(CC(=O)N2CCC(C)CC2)c2cccc(Cl)c2)c2ccccc21 (stereo not drawn),–,"inconclusive: 3.16 µM [cytotoxic, single point]"
O=C(O)c1ccc(CN2CCOC[C@H]2c2ncc(-c3cccnc3)[nH]2)cc1,inactive: 6.74% [at 87.6 µM],–
COCCCNC(=O)CSc1nc2c(sc3ccccc32)c(=O)n1CCc1ccc(OC)c(OC)c1,–,"inconclusive: 1 µM [cytotoxic, full curve, poor fit]"
